Like-named read-outs stand apart in the source and are kept apart here.
Test system: autoluminescent M. ulcerans 1059
Details: for mice relapsed: 24 weeks after treatment completion, 5 mice per group
Method: All animal procedures were conducted according to relevant national and international guidelines. All animal care and experimental protocols were approved by the Committee on Laboratory Animal Ethics of Guangzhou Institutes of Biomedicine and Health (GIBH), Chinese Academy of Sciences, #2017077. Serial, non-invasive, real-time monitoring of drug activity in a murine model of Buruli ulcer was used. […] The inoculum volume was 0.05 mL, containing approximately 5 to 6 log10CFU. The right hind footpads served as negative controls for observation of swelling. The lesion index was defined as follows: index 0 = normal footpad; index 1 = noninflammatory footpad swelling; index 2 = inflammatory footpad swelling; index 3 = inflammatory hind foot swelling. […] Subcutaneous route for streptomycin and oral gavage for others were used.
The MBD is defined as the lowest dose able to reduce the footpad CFU counts by 99% compared to the counts in the controls pretreatment, adopted from references[20],[21]. […] This experiment was carried out more than triplicate by detecting footpad suspension and only footpad tissue from two independent experiments were plated for CFU counts at d0 and d7 for MBD detection.

SMILES: COc1ccn2nc(C)c(C(=O)NCc3ccc(N4CCC(c5ccc(OC(F)(F)F)cc5)CC4)cc3)c2c1 [TB47]
- mice relapsed (TB47 25 mg kg^-1 daily for 5 days, one questionable): 3 mice
- time-to-relapse compared with the standard regimen for 5 weeks (TB47 25 mg kg^−1 for 1 week, P < 0.01): significantly extended
- RLUs from footpads of live mice (TB47 25 mg kg^−1 for 5 days): reached the background noise levels
- mice relapsed (TB47 50 mg kg^-1 daily for 5 days): 1 mouse
- M. ulcerans burden (CFU per footpad) lower than at day 0 (TB47 50 mg kg^−1, day 7): ~ 3.9 log10
- M. ulcerans burden (CFU per footpad) lower than in mice treated with rifampin and streptomycin (TB47 50 mg kg^−1, day 7): ~ 2.5 log10
- cure (TB47 alone 25 mg kg^−1 daily, 5 days per week, for 2 weeks): did not produce 100% cure
- reduction of M. ulcerans burden in mouse footpads compared to the standard BU treatment regimen (TB47 alone (abstract)): more than 2.5 log10 CFU
- efficacy compared with rifampin 10 + streptomycin 150 mg kg^−1 (TB47 alone at 0.8 mg kg^−1, live mouse RLU, P < 0.001): superior
- bioluminescence in live mice 3 days after treatment completion (day 7) (TB47 doses ≥ 12.5 mg kg^−1, P > 0.05): indifferent from the background reading
- footpad RLU after completion of treatment (TB47 ≥ 25 mg kg^−1, relapse monitoring): could not be detected at significant levels even up to 14 weeks post completion of treatment
- mice with relapsed M. ulcerans infection (ALI > 1) (TB47 ≥ 25 mg kg^−1 for 5 days, at 20 to 24 weeks): 4 to 6 out of 10 mice
- average lesion index (ALI) (day 7, TB47 0.4 mg kg^−1): 1.8 ± 1.25
- RLUs of footpad tissue (day 7, TB47 doses ≥ 12.5 mg kg^−1): reduced to the background level
- average lesion index (ALI) (day 7, TB47 ≥ 3.1 mg kg^−1): 0
- reduction in RLU in the footpad tissue (day 7, TB47 ≥ 3.1 mg kg^−1): > 2 log10
- dose exhibiting bactericidal activity (lowest among doses evaluated, treated for 5 days): ≥ 0.4 mg/kg
- minimal bactericidal dose (MBD) (lowest dose reducing footpad CFU by 99% vs pretreatment, treated 5 days, sacrificed d7): 1.6 mg/kg

— paper PMC6355801, “The compound TB47 is highly bactericidal against Mycobacterium ulcerans in a Buruli ulcer mouse model” (Nature Communications, 2019)
